# Measured values reported in the supplement of paper PMC7826260.
# This is one part of the list. One pool of 16,384 single-stranded DNAs met each Rep nickase domain in vitro (3 µM enzyme, 1 h, 37 °C); shown is the middle of each 90-letter strand. A value is the log2 ratio of uncut reads to the pool without enzyme; more negative means more cut, near 0 not cut, and no call is made. Because reads are shares of a total, they shift together; uncut strands gain when others are lost, and binding without cutting may add a little.
# Columns and labels:
# Assay in all cases: uncleaved DNA left, log2 of reads against the no-enzyme library (log2 ratio); higher = less cleavage (more negative = more Rep cleavage of the k-mer); sequences stand for … in CTCGTCCG…ACCGGAGA
# [1] = test system: T1, Rep nickase domain of Muscovy duck circovirus
# T1 sequence (residues 1-111 of Rep, tag left off): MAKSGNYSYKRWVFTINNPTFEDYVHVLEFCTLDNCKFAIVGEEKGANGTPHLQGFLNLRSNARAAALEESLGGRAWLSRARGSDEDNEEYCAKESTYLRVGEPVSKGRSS
# Method: (§1)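 A pool of 90-nt single-stranded DNAs with seven random bases just before the constant AC of the nick site (name = the seven bases) was cut by 3 µM recombinant His6-SUMO-tagged Rep nickase domain (300 nM DNA, 50 mM HEPES pH 8.0, 50 mM NaCl, 1 mM MnCl2, 1 h, 37 °C, three replicates). Uncut DNA was amplified and sequenced.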
# [2] = test system: T2, Rep nickase domain of banana bunchy top virus
# T2 sequence (residues 1-94 of Rep, tag left off): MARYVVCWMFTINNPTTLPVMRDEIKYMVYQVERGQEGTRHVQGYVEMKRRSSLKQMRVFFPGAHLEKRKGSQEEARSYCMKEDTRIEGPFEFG
# Method: as §1
# [3] = test system: T3, Rep nickase domain of cabbage leaf curl virus
# T3 sequence (residues 1-116 of Rep, tag left off): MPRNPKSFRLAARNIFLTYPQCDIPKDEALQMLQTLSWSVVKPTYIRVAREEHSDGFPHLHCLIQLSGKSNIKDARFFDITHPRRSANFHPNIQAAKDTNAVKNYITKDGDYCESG
# Method: as §1
# [4] = test system: T4, Rep nickase domain of chickpea chlorotic dwarf virus
# T4 sequence (residues 1-124 of Rep, tag left off): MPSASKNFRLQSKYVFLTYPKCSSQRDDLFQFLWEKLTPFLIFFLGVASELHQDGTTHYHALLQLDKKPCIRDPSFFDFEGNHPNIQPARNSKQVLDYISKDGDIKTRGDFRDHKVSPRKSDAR
# Method: as §1
# [5] = test system: T5, Rep nickase domain of faba bean necrotic yellows virus
# T5 sequence (residues 1-98 of Rep, tag left off): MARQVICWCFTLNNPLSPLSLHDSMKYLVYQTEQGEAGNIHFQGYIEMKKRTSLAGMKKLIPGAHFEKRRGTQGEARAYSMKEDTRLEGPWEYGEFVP
# Method: as §1
# [6] = test system: T6, Rep nickase domain of maize striate mosaic virus
# T6 sequence (residues 1-117 of Rep, tag left off): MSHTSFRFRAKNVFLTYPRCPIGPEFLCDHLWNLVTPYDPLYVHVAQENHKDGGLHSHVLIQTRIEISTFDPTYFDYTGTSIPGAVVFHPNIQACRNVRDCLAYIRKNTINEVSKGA
# Method: as §1
# [7] = test system: T7, Rep nickase domain of porcine circovirus 2
# T7 sequence (residues 2-116 of Rep, tag left off): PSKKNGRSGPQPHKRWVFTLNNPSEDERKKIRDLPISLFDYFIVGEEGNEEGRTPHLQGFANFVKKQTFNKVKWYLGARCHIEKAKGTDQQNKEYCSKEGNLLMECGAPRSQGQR
# Method: as §1
# [8] = test system: T8, Rep nickase domain of tomato golden mosaic virus
# T8 sequence (residues 1-124 of Rep, tag left off): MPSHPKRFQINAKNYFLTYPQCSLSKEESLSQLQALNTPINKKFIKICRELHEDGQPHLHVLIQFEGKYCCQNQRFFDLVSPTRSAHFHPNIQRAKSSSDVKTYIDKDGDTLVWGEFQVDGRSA
# Method: as §1
# [9] = test system: T9, Rep nickase domain of tomato yellow leaf curl virus
# T9 sequence (residues 1-136 of Rep, tag left off): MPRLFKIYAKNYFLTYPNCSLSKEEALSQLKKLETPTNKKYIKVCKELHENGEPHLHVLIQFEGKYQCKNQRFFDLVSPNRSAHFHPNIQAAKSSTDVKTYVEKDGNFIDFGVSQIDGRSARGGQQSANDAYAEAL
# Method: as §1
# [10] = test system: T10, Rep nickase domain of wheat dwarf virus
# T10 sequence (residues 1-137 of Rep, tag left off): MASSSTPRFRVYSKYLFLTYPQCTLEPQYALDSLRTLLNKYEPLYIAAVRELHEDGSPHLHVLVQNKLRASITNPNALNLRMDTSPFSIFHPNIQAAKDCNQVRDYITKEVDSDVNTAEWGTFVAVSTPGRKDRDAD
# Method: as §1
Sequence,uncleaved DNA left (log2) [1],uncleaved DNA left (log2) [2],uncleaved DNA left (log2) [3],uncleaved DNA left (log2) [4],uncleaved DNA left (log2) [5],uncleaved DNA left (log2) [6],uncleaved DNA left (log2) [7],uncleaved DNA left (log2) [8],uncleaved DNA left (log2) [9],uncleaved DNA left (log2) [10]
AATCCAC,-0.0876,-0.0963,-0.0369,-0.423,0.0346,-0.718,-0.0716,-0.0166,-0.105,0.00974
GTGTAGG,0.068,0.0706,0.398,1.05,0.0017,1.23,0.123,0.161,0.0504,0.126
CGCAGCA,-0.0316,0.121,0.264,0.767,-0.0145,0.743,-0.187,0.107,-0.0118,0.0818
ACCCTCC,0.13,0.0804,0.0944,0.365,0.0476,0.598,0.189,0.167,0.0461,0.0154
GGCGCCC,-0.098,0.0167,0.235,0.736,-0.0475,1.03,0.0384,0.029,-0.0842,-0.0232
ATTCTTC,0.131,-0.0427,0.0926,-0.363,0.109,-0.686,0.138,0.0841,0.00745,0.0246
GAGGAAA,0.0541,0.104,0.674,1.66,0.0659,1.88,0.16,0.126,0.0704,0.161
GGAAAAA,0.222,0.139,0.817,1.71,0.162,1.94,0.314,0.126,0.227,0.329
ACGGCCC,-0.0778,0.0439,-0.0615,0.138,-0.0702,-0.0606,-0.0294,0.0591,0.00511,-0.227
AAGTCCC,0.0858,-0.0875,0.115,-0.519,-0.0121,0.0132,-2.95,0.00727,-0.0332,0.105
ACGCTTT,0.126,0.0581,-0.252,-2.33,0.177,-0.649,-0.188,0.0647,-0.0941,-0.0248
GATACAC,0.0402,0.0381,0.149,0.556,0.000739,0.104,0.0574,0.0245,-0.0112,0.119
CCGGTCC,-0.00169,0.00879,0.286,0.311,-0.0199,0.992,0.0305,-0.0308,0.0497,-0.0253
CAAAGGC,-0.0282,-0.00847,-0.191,-0.29,-0.00895,-1.08,0.077,0.00419,-0.0368,-0.106
AACACTA,-0.0389,-0.0727,-0.269,-2.51,0.00499,-0.708,-0.0997,-0.0207,-0.0746,0.0413
